From PubChem BioAssay AID1240 (Sanford-Burnham Center for Chemical Genomics, 2008) come the findings set out here.

The campaign covered roughly 50,000 compounds. About 800 (1.6%) showed an effect of 50% or more. The list shows a part of the results.

The target of this experiment is Bcl-2-like protein 10 (Homo sapiens) (UniProt Q9HD36). In words: Phenotype converters, Bcl-B/TR3 peptide binding displacement, primary biochemical FP (AID 1240).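 Also: 0% = Bcl-B with tracer peptide and DMSO and 100% = tracer peptide lacking Bcl-B.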 The following applies: GST-Bcl-B / FITC-TR3 peptide fluorescence polarization; stronger effect = higher value; compound at 3.75 mg/L. For orientation: Fluorescence polarisation rises when a labelled molecule tumbles more slowly, as on binding a larger partner.
UniProt Q9HD36, sequence (Q9HD36 whole entry, looked up): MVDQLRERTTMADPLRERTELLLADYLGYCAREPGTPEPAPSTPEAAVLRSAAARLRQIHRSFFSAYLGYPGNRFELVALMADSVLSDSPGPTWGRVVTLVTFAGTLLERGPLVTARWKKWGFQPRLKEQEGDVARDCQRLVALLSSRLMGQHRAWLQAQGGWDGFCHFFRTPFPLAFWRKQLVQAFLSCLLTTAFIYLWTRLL
On to `CCOc1ccc(C(=O)Nc2nnc(CC)s2)cc1[N+](=O)[O-]`, for which the displacement was 9.6%.

Turning to `COc1ccc(C2CC(C(F)(F)F)n3ncc(C(=O)Nc4cccc(C(C)O)c4)c3N2)cc1OC` (centres undefined), the displacement was 4.2%. The value for `C/C(=N/N1CCN(Cc2ccccc2)CC1)c1ccc(Cl)cc1` was -4.7%. In the case of `O=C(O)c1cc(-c2cn[nH]c2-c2ccccc2)nc2ccc3ccccc3c12` it was -10.8%; in that of `CCOc1cc(/C=C2/C(=O)NC(=O)N(c3ccc(C(C)C)cc3)C2=O)ccc1OCC(=O)O`, -14%; in that of `O=C(NCc1ccco1)N1CCCCC1`, -1.7%. `COc1ccccc1N(CC(=O)NCCC1=CCCCC1)S(=O)(=O)c1ccccc1`: the displacement is -16.5%. The value for `CC(C)(CNC(=O)c1cccnc1)CNC(=O)c1cccnc1` was 7.9%; that for `Cn1ccnc1-c1ccc(-c2nccn2C)cc1` was 11.8%.

As to `Cc1cc(C)n(-c2nc(Nc3ccc(Br)cc3)nc(-n3nc(C)cc3C)n2)n1`, the displacement was 28.1%. In the case of `Nc1nc(-c2ccc3c(c2)OCO3)cs1` it was 13.6%; in that of `CCOc1ccc(C(=O)Nc2cccc(-c3nc4cc(CC)ccc4o3)c2)cc1[N+](=O)[O-]`, 20.5%.

For `COc1cccc(/C=C2\N=C(c3cccs3)OC2=O)c1OC`, the displacement was 59.5%.

In the case of `CC(C)Nc1nc(-c2ccc(Cl)cc2)nc2ccccc12`, the displacement was 15.9%. In the case of `CC(=O)N1CCN(c2ccc(NC(=O)c3ccccc3Br)cc2)CC1` it was 5.6%; in that of `Cc1ccccc1NC(=O)CSc1ccccc1`, 8.5%; in that of `O=C(Nc1ccccc1C(F)(F)F)c1cc2ccccc2oc1=O`, -2.3%. The value for `CCc1ccccc1NC(=O)CN(c1cc(OC)ccc1OC)S(C)(=O)=O` was 15%. Consider `CCOc1ccc(C2=C/C(=C/c3ccc(I)o3)C(=O)O2)cc1`, for which the displacement was -1.7%. For `CCCCSc1nc2cc(C)ccc2n1C`, the displacement turned out to be 4.8%. In the case of `CCOC(=O)C1=C(O)/C(=C\c2ccccc2[N+](=O)[O-])N=C1C` it was 15.7%; in that of `O=C(/C=C/c1cccs1)Nc1ncc(Cc2ccc(F)cc2)s1`, -4.5%; in that of `Cc1ccc(C(=O)c2ccc(Br)cc2)cc1S(=O)(=O)NCc1ccccc1`, -3.6%.

As to `Cc1c(-c2ccc(Cl)cc2Cl)nc2ccccc2c1C(=O)O`, the displacement is -9.9%. In the case of `O=C(Nc1ccc(Br)cc1)C1C2/C=C\CCCCC21` (centres undefined) it was -15.9%.

Take `COc1cccc(/C=C2/C(=O)NC(=S)N(c3cccc(Br)c3)C2=O)c1O`: the displacement amounted to 5.4%. The value for `COc1cccc(N(C=O)C(=O)C2C3C=CC(C3=C3CCCC3)C2C)c1` (centres undefined) was -7.1%; that for `CCOc1ccccc1/C=C1/SC(NC(C)=O)=NC1=O` was 12.9%. As for `COC(=O)CN1C(=O)/C(=C/c2ccc(OCc3ccccc3Cl)c(OC)c2)SC1=S`, the displacement was 10.3%. In the case of `CCOc1ccc(C(=O)Nc2ccc(NC(=O)c3ccco3)c(OC)c2)cc1[N+](=O)[O-]` it was 0.7%; in that of `COc1cc(NC(=O)Cc2ccc(Cl)cc2)cc(OC)c1`, -0.3%.

For `O=C(O)c1ccc(-c2ccc(OC(F)(F)F)cc2)o1`, the displacement is -7.6%. The value for `COc1ccccc1/C=C1/SC(=S)N(CCC(=O)Nc2c(C)n(C)n(-c3ccccc3)c2=O)C1=O` was 1.9%; that for `COc1cc(/C=N/NC(=O)c2cccnc2)cc(OC)c1O` was 5.1%. In the case of `CCOC(=O)c1ccc(NC(=O)c2cc(OCC)cc(OCC)c2)cc1` it was 14.2%. The value for `Cc1c(C(=O)Nc2ccc(I)cc2Cl)oc2ccc(Cl)cc12` was -8.7%; that for `COc1ccccc1NC(=O)Nc1cccc2cccnc12` was -10.4%; that for `CN1CCN(S(=O)(=O)c2ccc(-c3ccc(S(=O)(=O)N4CCN(C)CC4)cc3)cc2)CC1` was 3.8%. Take `O=[N+]([O-])c1ccc(N2CCN(S(=O)(=O)c3ccccc3)CC2)cc1NCCc1ccccc1`: the displacement came out at 7.8%. In the case of `CCOc1ccc(NC(=O)CC2S/C(=N\N=C3/C=C(C)CC(C)(C)C3)NC2=O)cc1` (centres undefined) it was -3.9%; in that of `C=CCNC(=O)COc1cc(C)c(Cl)c(C)c1`, -8.5%; in that of `Cc1ccc2nc(SCC(=O)Nc3ccc(/C=C/c4ccccc4)cc3)[nH]c2c1`, 4%. For the compound `O=C(CCNC(=O)/C(=C\c1cccc([N+](=O)[O-])c1)NC(=O)c1ccco1)OCc1ccccc1`, the displacement is 0.4%.

Consider `Cc1ccc(S(=O)(=O)Nc2ccc(OC(=O)c3ccc(Cl)cc3)cc2)c(C)c1`, for which the displacement was 5.5%. In the case of `COc1ccc(Nc2ncnc3ccc(C)cc23)cc1` it was 9%; in that of `CCCC(C)NC(=O)c1c(-c2c(Cl)cccc2Cl)noc1C` (centres undefined), -5.9%; in that of `O=C(NC(=S)Nc1cc([N+](=O)[O-])cc(Cl)c1O)c1ccc(Br)cc1`, -13.6%. In the case of `COc1cc(/C=C2\C(=O)NN(c3ccc(Cl)c(Cl)c3)C2=O)c([N+](=O)[O-])cc1OC`, the displacement was 16.2%. The value for `COC(=O)c1c(NC(=O)CCN2C(=O)c3ccccc3C2=O)sc2c1C(C(=O)OC)CC2` (centres undefined) was -18.6%; that for `O=C1C(=O)N(c2cccc(Br)c2)C(c2cccc([N+](=O)[O-])c2)/C1=C(/O)c1ccccc1` (centres undefined) was -7.6%. In the case of `CCN(CC)c1ccc(/C=C2/C(=O)NN(c3ccc(C)c(Cl)c3)C2=O)c(O)c1` it was 59.2%. The value for `COc1ccc(C2CC(C(F)(F)F)n3ncc(C(=O)NCc4ccco4)c3N2)cc1OC` (centres undefined) was 0.5%; that for `CC(=O)Nc1ccc(S(=O)(=O)Nc2cccc3cccnc23)cc1` was -24.6%; that for `CCOC(=O)c1c(NC(C)=O)sc2c1CCc1ccccc1-2` was -8.5%. On to `CS(=O)(=O)N(Cc1ccccc1)c1ccc(C(=O)N2CCc3ccccc3C2)cc1`, for which the displacement was 3.7%. The value for `CC(C)CN1C(=O)c2ccc(C(=O)NC3CCCCC3)cc2C1=O` was 10.4%; that for `Cc1cc(=O)oc2cc(OCC(=O)OCc3ccccc3)c(Cl)cc12` was -6.4%. In the case of `CCOC(=O)Cn1c(=N)n(Cc2ccccc2Cl)c2ccccc21` it was 3.5%; in that of `COc1ccccc1/C=C(\NC(=O)c1ccccc1)C(=O)NCc1ccco1`, -2.4%; in that of `CC(C)CNC(=O)c1ccc2c(c1)C(=O)N(CC(C)C)C2=O`, 5.1%. In the case of `CCOC(=O)C1=C(C)N=c2s/c(=C/c3ccc(OC)cc3)c(=O)n2C1c1sccc1C` (centres undefined) it was 4.4%. Turning to `Cc1ccc(-n2cnc3sc(C)c(C)c3c2=O)cc1`, the displacement is -0.9%. The value for `COc1ccc(C(=O)Nc2nc(C)c(C(C)=O)s2)cc1` was 3.9%; that for `CCOC(=O)c1c(NC(=O)c2ccccc2F)sc(C(=O)Nc2ccc3c(c2)OCO3)c1C` was -9.3%. Regarding `O=C(NCc1cccs1)C(=O)Nc1cccc(C(F)(F)F)c1`, the displacement came to 8.3%. On to `CCCCSc1nc2ccc(NC(C)=O)cc2s1`, for which the displacement is -3.2%. The value for `O=C(NC(=S)N1CCOCC1)c1ccc(Cl)cc1Cl` was 3.2%.

As to `O=C1CC(=O)N(c2ccc(Br)cc2)N1`, the displacement came to 17.7%. The value for `CCN(CC)CCP(=O)(c1ccccc1)c1ccccc1` was -1.3%.

For the compound `O=C(Nc1ccccc1C(F)(F)F)c1ccc(-c2cc(Cl)ccc2Cl)o1`, the displacement is -4.6%. In the case of `O=C1c2[nH]nc(-c3ccccc3)c2C(c2ccccc2F)N1c1ccccc1` (centres undefined) it was -3.9%; in that of `O=C(Nc1ccccc1C(=O)Nc1ccc(Cl)cc1)c1ccc([N+](=O)[O-])cc1`, 4%; in that of `Cc1ccc(/C=C/C(=O)Nc2cccc3cccnc23)o1`, 91.4%. In the case of `COc1ccc(C(=O)N2CCN(C(=O)c3cccs3)CC2)cc1` it was -12.3%; in that of `C=CCN1C(=O)C(Cc2ccc(F)cc2)S/C1=N\N=C\c1ccco1` (centres undefined), 8.1%. As for `Cc1ccc(NC(=S)NC(=O)/C=C/c2ccccc2)cc1C`, the displacement came out at 0.3%.

Turning to `O=C(c1cccs1)N1CCN(Cc2ccncc2)CC1`, the displacement was -1.6%. Turning to `CC(=O)N1c2ccccc2NC2=C(C(=O)CC(c3ccccc3)C2)C1c1ccccc1Cl` (centres undefined), the displacement is -12%. In the case of `CC1=CC(c2ccccc2)n2c(nc3ccccc32)N1` (centres undefined) it was 13.1%. In the case of `O=C1C2C(C(=O)N1c1cccc(Cl)c1)N1CCCN1C2c1ccccc1` (centres undefined) it was 2.6%; in that of `CN(C)CC(O)CN1C(=O)N(CN2C(=O)N(CC(O)CN(C)C)C(=O)C2(C)C)C(C)(C)C1=O` (centres undefined), -11%. The value for `O=c1oc2cc(OCc3ccc(Cl)cc3)ccc2c2c1CCCC2` was -4.7%. Turning to `O=C(Nc1c(F)c(F)c(F)c(F)c1F)c1cccs1`, the displacement was found to be 2.8%. The value for `CCOC(=O)c1c(NC(=O)c2cccc([N+](=O)[O-])c2)sc2c1CCC(CC)C2` (centres undefined) was 2.8%. With `CCOc1ccc(NC(=O)CN(c2ccc(C)cc2)S(=O)(=O)c2ccc(SC)cc2)cc1`, the displacement was determined as 11.6%. As for `COc1ccc(-c2cccc(=O)o2)cc1`, the displacement worked out at 13.4%. In the case of `CCOC(=O)C1=CN(c2ccc(OCC)cc2)C=C(C(=O)OCC)C1c1ccc(OC)cc1` it was 1.2%. For `CCN(CC)CCCCOc1c(C)ccc(C)c1C`, the displacement worked out at 17.4%. In the case of `COc1cc2c(cc1NC(=O)c1ccc(OC)c([N+](=O)[O-])c1)oc1ccccc12` it was -9.6%; in that of `COC(=O)CN(c1ccc(C)cc1)S(C)(=O)=O`, 5.3%. In the case of `NC(=O)c1ccc(C(=O)c2ccc(N)cc2)cc1N`, the displacement is -1.2%. In the case of `O=C(NCC1CCCO1)c1nn2c(c1Br)NC(c1cccs1)CC2C(F)(F)F` (centres undefined), the displacement was -0.6%.

`Clc1ccc(C(Sc2ncn[nH]2)c2ccccc2)cc1` (centres undefined): the displacement is 17.4%. The value for `Cc1c(Cl)cccc1NC(=O)/C=C/c1ccccc1Cl` was 16.8%; that for `CC(=O)Oc1ccc(/C=C2\C=C(c3ccc(C)cc3)OC2=O)cc1` was 34.5%. Regarding `COC(=O)CSC1=NC(=O)/C(=C/c2cccc(OC)c2)S1`, the displacement is -11.3%. The value for `CCc1ccc(NC(=O)C(=O)NCCN2CCOCC2)cc1` was 2.1%; that for `O=c1nc(-c2ccccc2F)c2cc(Cl)ccc2[nH]1` was 6.9%; that for `N#Cc1ccccc1OCC(=O)N/N=C/c1ccccc1` was 5.9%. In the case of `O=C(Nc1ccccc1)Nc1nnc(-c2ccc(Cl)cc2)s1` it was 16.1%.

Regarding `O=C(c1ccc(Cl)cc1)N1N=C(c2ccc(Cl)cc2)CC1(O)C(F)(F)F` (centres undefined), the displacement amounted to 5.2%. In the case of `Cc1cc(C)c(OCCCN2CCOCC2)c(C)c1` it was 1.3%; in that of `O=C(Nc1ccc(-c2nc3ccccc3c(=O)o2)cc1)c1ccc(Cl)cc1`, 10.6%.

On to `CCCCn1c2ccccc2n2c(C(=O)OC)c(C)nc12`, for which the displacement is -0.9%.

With `Cc1onc(-c2ccccc2Cl)c1C(=O)NCC#N`, the displacement came out at 7.9%. In the case of `CC1CCN(c2nc(-c3ccccc3O)nc3ccccc23)CC1` it was 7.4%; in that of `Cc1cc(C)n(C(=O)c2cc(=O)[nH]c3ccccc23)n1`, 2.4%; in that of `CCOc1ccc(Oc2cc(NC(=O)c3ccco3)cc([N+](=O)[O-])c2)cc1`, -4%. In the case of `O=C(Nc1ccc(C(=O)N2CCOCC2)cc1)c1c(Cl)cccc1Cl` it was 3.9%.
